Results published in patent US20100124555A1, “Compositions and Methods for Treating Pancreatic Tumors” (UNIVERSITE DE LA MEDITERRANEE, priority 2007, published 2010).

Tested on: SOJ-6 cells
Assay: Annexin V / PI apoptosis assay
Format: cell-based, human
Details: antibodies 20 μg/ml, tunicamycin 25 or 50 μg/ml
Method: SOJ-6 cells (20.10^4 cells per well) were seeded onto 24 wells plates 72H before to start the experiment. Cells were incubated either with 20 μg/ml 16D10 IgM, or 20 μg/ml of a further recombinant 16D10 IgG1 antibody which contained the 16D10 variable regions linked fused to a human IgG1 constant region and human kappa light region for the heavy and light chains respectively, 25 μg/ml Tunicamycin or 50 μg/ml Tunicamycin. The AnnexinV/PI stainings were performed after 24H of culture using the AnnexinV-FITC Apoptosis Detection Kit I (BD Pharmingen) according to the manufacturer instructions. Stainings were acquired on a FACScan (Becton Dickinson, San Jose, Calif.) and results were analysed using FlowJo Software.

B1: IgG1 antibody 16D10: further recombinant 16D10 IgG1 antibody: 16D10 variable regions fused to human IgG1 constant region and human kappa light region (antibody)
heavy: QVQLQQSDAELVKPGASVKISCKASGYTFTDHAIHWVKQKPEQGLEWIGYISPGNDVIKFNEKFKGKATLTADKSSSTAYMQLNSLTSEDSAVYFCKRSEGGVFDYWGQGTTLTVSS[omitted - human IgG1 constant region]
light: NIMMTQSPSSLAVSAGEKVTMSCKSSQSVLYSSNQKNFLAWYQQKPGQSPKLLIYWASTRESGVPDRFTGSGSGTDFTLTISSVQAEDLAVYYCHQYLSSYTFGGGTKLEIKRTVAAPSVFIFPPSDEQLKSGTASVVCLLNNFYPREAKVQWKVDNALQSGNSQESVTEQDSKDSTYSLSSTLTLSKADYEKHKVYACEVTHQGLSSPVTKSFNR
apoptosis by Annexin V and Annexin V/PI staining: induced significant levels of apoptosis
apoptosis by Annexin V and Annexin V/PI staining (listed as chimeric recombinant 16D10 antibody): capable of inducing apoptosis of SOJ-6 cells
